Measured values: publication PMC4336329 (PLoS ONE, 2015)
About 2,200 (0.71%) of roughly 310,000 compounds showed an effect of 50% or more. The effect is printed as a negative number. This is one part of the list.

Each molecule was assayed against human ether-à-go-go-related gene (hERG) potassium channel (human, UniProt Q12809) (assay: primary screen, population patch clamp on CHO cells stably expressing hERG).
Sequence of human ether-à-go-go-related gene (hERG) potassium channel (Q12809 whole entry, looked up): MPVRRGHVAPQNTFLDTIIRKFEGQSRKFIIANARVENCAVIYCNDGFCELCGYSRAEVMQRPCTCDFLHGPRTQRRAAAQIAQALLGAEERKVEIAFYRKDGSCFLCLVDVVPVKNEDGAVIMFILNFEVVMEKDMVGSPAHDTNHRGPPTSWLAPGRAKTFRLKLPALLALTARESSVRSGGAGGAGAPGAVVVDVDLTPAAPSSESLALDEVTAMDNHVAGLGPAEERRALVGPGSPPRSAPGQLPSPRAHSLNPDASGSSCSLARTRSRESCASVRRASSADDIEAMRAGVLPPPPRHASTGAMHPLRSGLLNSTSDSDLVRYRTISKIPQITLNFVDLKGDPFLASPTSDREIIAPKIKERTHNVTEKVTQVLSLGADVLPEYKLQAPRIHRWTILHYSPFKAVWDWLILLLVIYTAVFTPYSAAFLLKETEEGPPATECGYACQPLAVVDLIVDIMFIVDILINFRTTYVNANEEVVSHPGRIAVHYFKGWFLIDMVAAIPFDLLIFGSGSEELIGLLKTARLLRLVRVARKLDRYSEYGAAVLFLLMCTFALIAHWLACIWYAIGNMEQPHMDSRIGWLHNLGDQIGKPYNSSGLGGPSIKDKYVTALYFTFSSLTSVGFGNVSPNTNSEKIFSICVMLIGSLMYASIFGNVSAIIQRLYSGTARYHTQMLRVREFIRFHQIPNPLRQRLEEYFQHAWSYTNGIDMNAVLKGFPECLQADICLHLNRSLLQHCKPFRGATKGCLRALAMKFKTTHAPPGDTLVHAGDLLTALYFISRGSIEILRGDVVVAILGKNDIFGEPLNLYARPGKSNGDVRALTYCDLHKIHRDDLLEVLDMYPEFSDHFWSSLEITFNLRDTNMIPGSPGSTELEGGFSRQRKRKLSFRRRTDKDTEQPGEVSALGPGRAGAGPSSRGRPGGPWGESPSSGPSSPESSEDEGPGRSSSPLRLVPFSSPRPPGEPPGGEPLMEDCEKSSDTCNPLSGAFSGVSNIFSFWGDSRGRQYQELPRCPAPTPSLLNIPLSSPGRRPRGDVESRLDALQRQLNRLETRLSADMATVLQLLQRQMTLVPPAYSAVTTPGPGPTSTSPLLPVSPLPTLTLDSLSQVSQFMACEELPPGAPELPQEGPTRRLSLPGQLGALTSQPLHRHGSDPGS
For `O=C(Cc1cc(=O)[nH][nH]1)N/N=C/C=C/c1ccccc1`, the “hERG current change (%, negative = inhibition) at 1uM” value was 7.68%.
With `CN(C)c1ccc(CNCC2CCCO2)cc1.Cl` (stereo not shown) the “hERG current change (%, negative = inhibition) at 1uM” value was 10.8%.
In the case of `CC(C)(O)C#Cc1ccc(C(=O)NC(CCCNC(N)=O)C(=O)O)s1` (stereo not shown), the “hERG current change (%, negative = inhibition) at 1uM” value is reported as 14.7%.
`COc1cccc(NC(=O)CNC(=O)[C@@H]2Cc3ccccc3CN2C(=O)OC(C)(C)C)c1` was tested, and the “hERG current change (%, negative = inhibition) at 1uM” value was 12.8%.
`O=C(Nc1ccccc1C(=O)NCCCN1CCOCC1)c1ccccc1` was tested, and the “hERG current change (%, negative = inhibition) at 1uM” value was 13%.
In the case of `O=C(NCCc1ccc(Cl)cc1)C1CCN(c2ncccn2)CC1`, the “hERG current change (%, negative = inhibition) at 1uM” value is reported as 13.9%.
With `CCOC(=O)c1cc(-c2ccc(C)cc2)n(CC(=O)NCc2ccco2)c1C` the “hERG current change (%, negative = inhibition) at 1uM” value was 11.3%.
For `COC(=O)COc1ccc(S(=O)(=O)N2CCOCC2)cc1`, the “hERG current change (%, negative = inhibition) at 1uM” value was 13.1%.
`Cc1ccc(SCC(=O)Nc2cccc(C)c2)cc1` was tested, and the “hERG current change (%, negative = inhibition) at 1uM” value was 7.49%.
In the case of `COC(=O)c1cnc2ccccc2n1`, the “hERG current change (%, negative = inhibition) at 1uM” value is reported as 13.8%.
With `CCC(C)(C)n1nnnc1C(C(C)C)N(Cc1ccco1)Cc1cc2cc3c(cc2[nH]c1=O)OCO3` (stereo not shown) the “hERG current change (%, negative = inhibition) at 1uM” value was 2.53%.
For `CS(=O)(=O)N(CCC#N)Cc1ccc(C=O)o1`, the “hERG current change (%, negative = inhibition) at 1uM” value was 14.6%.
In the case of `Cc1cc(C)cc(OCC(=O)NNC(=O)c2cc3ccccc3o2)c1`, the “hERG current change (%, negative = inhibition) at 1uM” value is reported as 10.5%.
With `Cc1cccc(N(C)S(=O)(=O)c2ccc(-c3cnc(C4CC4)o3)cc2)c1` the “hERG current change (%, negative = inhibition) at 1uM” value was 13.5%.
For `Cc1cc(F)ccc1NS(=O)(=O)c1c(C(=O)N2CCOCC2)c(C)n(C)c1C`, the “hERG current change (%, negative = inhibition) at 1uM” value was 15.2%.
In the case of `COc1cc(-c2nc(-c3ccncc3)no2)cc(OC)c1OC`, the “hERG current change (%, negative = inhibition) at 1uM” value is reported as 12.2%.
For `O=C(NCN1CCCCC1)c1cccnc1`, the “hERG current change (%, negative = inhibition) at 1uM” value was 8.57%.
For `Cc1cc(OCc2cc(C(=O)NCC3(C)COC3)no2)cc(C)c1Cl`, the “hERG current change (%, negative = inhibition) at 1uM” value was 4.9%.
For `COc1ccc(C(=O)OCC(=O)NC(=O)NC2CCCC2)cc1OC`, the “hERG current change (%, negative = inhibition) at 1uM” value was 4.72%.
With `Cc1c(C(=O)O)cccc1-n1c(C)cc(/C=C(/C#N)C(=O)NCc2ccccc2)c1C` the “hERG current change (%, negative = inhibition) at 1uM” value was 24.1%.
In the case of `COc1cc(OC)cc(C(=O)Nc2cc(NC(=O)c3ccco3)ccc2OC)c1`, the “hERG current change (%, negative = inhibition) at 1uM” value is reported as 9.13%.
For `CC(Oc1ccc(F)cc1)C(=O)Nc1cc(C(F)(F)F)ccc1-n1cncn1` (stereo not shown), the “hERG current change (%, negative = inhibition) at 1uM” value was -8.26%.
For `O=C(N/N=C(\Cc1ncc[nH]1)c1ccccc1)c1ccccc1`, the “hERG current change (%, negative = inhibition) at 1uM” value was 14.2%.
`CC(=O)N/C(=C\c1ccccc1)C(=O)N1CCOCC1` was tested, and the “hERG current change (%, negative = inhibition) at 1uM” value was 15.1%.
With `COc1ccccc1NC(=O)Nc1nnc(CC(=O)Nc2cccc(C)c2)s1` the “hERG current change (%, negative = inhibition) at 1uM” value was 5.74%.
With `O=c1[nH]c2ccc(S(=O)(=O)Nc3ccccc3O)cc2[nH]1` the “hERG current change (%, negative = inhibition) at 1uM” value was 19.1%.
With `C[C@@H]1CN(C2CCC(C#N)(c3ccc(F)cc3)CC2)CC[C@]1(C(=O)O)c1ccccc1.Cl` (stereo partly shown) the “hERG current change (%, negative = inhibition) at 1uM” value was 2.33%.
For `COc1ccc(C(=O)Nc2ccccc2SCc2cc(=O)n3nc(C)sc3n2)cc1OC`, the “hERG current change (%, negative = inhibition) at 1uM” value was 11.3%.
`CCOc1ccc(/C(CC)=N/NC(=O)C2(C)CC2(Br)Br)cc1` (stereo not shown) was tested, and the “hERG current change (%, negative = inhibition) at 1uM” value was 13.8%.
For `CC(C)(O)C#Cc1ccc(C(=O)N2CCC(CCC(=O)NC3CC3)CC2)cc1`, the “hERG current change (%, negative = inhibition) at 1uM” value was 1.5%.
For `CC12C=CC(=O)C=C1CCC1C3CCC(O)(C(=O)CO)C3(C)CC3OC312` (stereo not shown), the “hERG current change (%, negative = inhibition) at 1uM” value was 12.3%.
In the case of `CCN(c1ccccc1)S(=O)(=O)c1cc(NC(=O)Nc2ccccc2C#N)ccc1Cl`, the “hERG current change (%, negative = inhibition) at 1uM” value is reported as 3.54%.
In the case of `Cc1ccc(CC2C(=O)N(c3ccccc3)C(=O)C2C)cc1` (stereo not shown), the “hERG current change (%, negative = inhibition) at 1uM” value is reported as 10.2%.
In the case of `CC1CCCCN1CCCNc1ccc(C(CC(N)=O)NC(=O)Cc2ccc(Br)cc2)cc1[N+](=O)[O-]` (stereo not shown), the “hERG current change (%, negative = inhibition) at 1uM” value is reported as 9.55%.
For `Cc1ccc(NC(=O)CC2NCCN(Cc3ccccc3)C2=O)cc1` (stereo not shown), the “hERG current change (%, negative = inhibition) at 1uM” value was 14.1%.
`CC(C)(C)c1ccc(OCC(=O)NCC(c2cccs2)N2CCOCC2)cc1` (stereo not shown) was tested, and the “hERG current change (%, negative = inhibition) at 1uM” value was 2.85%.
`CN(c1ccccc1C(=O)Nc1ccc(S(=O)(=O)N2CCOCC2)cc1)S(C)(=O)=O` was tested, and the “hERG current change (%, negative = inhibition) at 1uM” value was -6.46%.
For `CCOC(=O)C1CCCN(c2c(NCCCN(C)Cc3ccccc3)c(=O)c2=O)C1` (stereo not shown), the “hERG current change (%, negative = inhibition) at 1uM” value was -3.52%.
For `CCC(=O)N1CCN(c2cc(N3CCN(C)CC3)c(F)cc2[N+](=O)[O-])CC1`, the “hERG current change (%, negative = inhibition) at 1uM” value was 2.64%.
In the case of `COc1cc(OC)cc(-c2c(-c3ccsc3)c3cc(Br)ccc3n2C)c1`, the “hERG current change (%, negative = inhibition) at 1uM” value is reported as 16.5%.
For `COc1ccc(C2C(C(=O)N3CCC4(CC3)OCCO4)CC(=O)N2c2ccc(OC)cc2)cc1` (stereo not shown), the “hERG current change (%, negative = inhibition) at 1uM” value was 5.17%.
For `Cc1ccc(N2C(=O)C3ON(c4ccccc4)C(c4ccncc4)C3C2=O)c(C)c1` (stereo not shown), the “hERG current change (%, negative = inhibition) at 1uM” value was 0.87%.
`CCN(Cc1ccc(OC)c(COC)c1)CC1CCCN(CCc2cccc(F)c2)C1` (stereo not shown) was tested, and the “hERG current change (%, negative = inhibition) at 1uM” value was -4.29%.
